# According to the supplement of paper PMC12217912:
# The list shows a part of the results. The full chains were built here from the parent and the listed change. Values near 0.05 are background.
# B1: TEV protease; numbered along this chain (parent)
# chain: MGESLFKGPRDYNPISSSICHLTNESDGHTTSLYGIGFGPFIITNKHLFRRNNGTLVVQSLHGVFKVKDTTTLQQHLVDGRDMIIIRMPKDFPPFPQKLKFREPQREERICLVTTNFQTKSMSSMVSDTSCTFPSGDGIFWKHWIQTKDGQCGSPLVSTRDGFIVGIHSASNFTNTNNYFTSVPKNFMELLTNQEAQQWVSGWRLNADSVLWGGHKVFMVKPEEPFQPVKEATQL
# Variants of: B1
# Experiment: raw area under fraction-flipped curve 0-4 h after induction (AUC4h, not background-subtracted), DNA-recorder readout of cleavage of the substrate (dimensionless); higher = more cleavage of the substrate by the protease variant
# Conditions: temperature: 34 °C; time window: 0-4 h after rhamnose induction
# 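Also: Bxb1 expression induced with 0.2% (w/v) L-rhamnose at OD600 near 0.5, cultures sampled hourly, flipped fraction per protease–substrate barcode pair counted by paired-end Illumina sequencing.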
Variant,area with substrate ENLYFQD,area with substrate ENLYFQF,area with substrate ENLYFQG,area with substrate ENLYFQI,area with substrate ENLYFQK,area with substrate ENLYFQN,area with substrate ENLYFQR,area with substrate ENLYFQS,area with substrate ENLYFQT,area with substrate ENLYFQL
G54E,0.0662,0.0546,0.0726,0.0536,0.0602,0.0624,0.0564,0.075,0.0731,
M188A,,,0.0772,0.045,0.0538,0.0711,0.0597,0.0968,0.0634,0.0668
G37Y,,0.0625,0.05,0.0331,0.0454,,0.0341,0.0629,0.0454,0.0709
F6S,,,0.115,0.0478,0.0566,0.0976,0.0546,0.102,,
F6I,0.0713,,0.121,,,,0.087,0.11,0.0676,
I139C,0.0843,,0.102,,0.0605,0.0929,0.0671,0.122,0.0818,0.0595
R50I,0.0529,,,0.0597,,0.0904,0.0739,0.135,0.0663,0.0886
R109V,,0.0837,0.068,,0.0686,0.0796,0.0854,0.0903,0.0734,0.0613
K90R,,,0.084,0.0619,0.0751,,,0.103,,0.0602
S171A,0.0702,0.0804,0.0876,0.0515,,,,0.0909,,
V157P,,,0.0428,,0.0507,0.0487,0.0513,0.0509,0.047,0.0515
Q146S,,,,,0.0566,,,0.0945,0.0458,0.0453
Q198H,,,,,,0.073,0.059,0.109,0.0706,0.0551
I36K,0.0395,,,,0.0461,,0.0386,0.041,,0.0482
E224G,0.0773,,0.0844,0.0575,,,,0.101,,0.0501
G213V,,,0.0619,,,0.0594,,0.0598,,
M125I,,,0.0947,0.074,,,,0.0995,,0.053
F65D,,,,0.0565,,,,0.0829,,0.0597
P228G,,0.0874,,,0.0591,0.0509,0.0588,0.106,,0.0523
P228L,,0.0742,,0.0533,,0.0946,,0.102,,
Q75I,,,0.0822,0.0495,0.0683,,,0.084,,
N116H,,,,,,0.0803,0.0545,0.103,,0.0682
E231F,0.0716,,0.0865,,0.0591,0.0658,,0.0869,0.0589,0.019
P225Q,,,,,,0.0609,0.0556,0.1,,0.0601
K98D,,,,0.0649,0.0682,,0.0656,0.106,0.0644,0.0702

Variant,area with substrate ENLYFQD,area with substrate ENLYFQF,area with substrate ENLYFQG,area with substrate ENLYFQI,area with substrate ENLYFQK,area with substrate ENLYFQN,area with substrate ENLYFQR,area with substrate ENLYFQS,area with substrate ENLYFQT,area with substrate ENLYFQL
T174Q,0.0698,,0.102,,0.0748,0.0654,0.0621,0.0912,,0.0589
K185H,,,0.11,,,,0.0646,0.115,,
F101L,,,,0.0551,0.0579,0.0485,0.0551,0.087,,0.0488
E107I,,,0.113,0.0558,0.0562,,,0.0917,0.0629,
S123Y,,,,0.0496,0.0519,,0.0604,0.108,,0.0585
K68P,,0.0871,0.118,0.0477,,0.0685,0.0322,0.111,0.0667,0.0628
V113F,,,0.0752,,,,,0.0955,,
G202T,0.048,,,0.049,0.0808,,0.0598,0.0689,0.0554,0.0514
F117A,0.0764,,,,,0.095,,0.0966,0.0602,
L211A,,,,,,,,0.116,0.0553,
D91R,,,,,,,,0.103,,
N172T,,,0.0653,0.0627,0.0459,,0.056,0.0702,,0.048
Q59D,,,,0.0466,,,0.0542,0.0884,0.079,0.0738
Q59P,0.0354,,,,,0.0537,0.0371,0.0421,0.0302,0.0372
S26Y,0.0582,,0.0769,0.0461,0.0734,0.0697,,0.0751,0.0726,
D69Y,,,,,0.0584,,0.0765,0.0811,0.0654,0.0287
S169E,,,,0.0375,0.0549,0.0531,0.054,0.0582,0.0714,
W212P,,,,,,,0.0554,0.0602,,0.0275
L205I,,,,0.062,,,,0.0981,0.063,0.0655
L205K,,,0.0515,,,,0.0719,0.0631,0.0515,
T114E,,,,,0.0679,,0.0509,0.0859,0.0748,0.0612
N178D,,,0.0607,0.0489,0.0564,,0.0554,0.0656,0.0525,0.0507
N178G,,0.074,,0.0576,,,0.0718,0.116,,
G8Y,,,,,,0.0693,,0.0841,,

# Same assay, conditions: temperature: 34 °C; time window: 0-4 h after rhamnose induction
Variant,area with substrate ENLYFQM,area with substrate ENLYFQQ,area with substrate ENLYFQV,area with substrate ENLYFQW,area with substrate ENLYFQH,area with substrate ENLYFQP,area with substrate ENLYFQY,area with substrate ENLYFQE
M188A,0.0583,0.0728,0.0364,0.0634,,,,
G37Y,,,,0.047,0.0687,,,
F6S,,0.0422,0.0607,,,0.067,0.0867,
F6I,,,,,,0.0699,0.0796,
I139C,0.108,,,,,0.0569,0.119,
R50I,,,,0.0567,,,,
R109V,,0.0839,0.0535,0.0764,0.0845,,,
K90R,0.08,,,0.0735,,,,
S171A,,0.0713,0.0486,,0.0726,,,
V157P,0.0522,,0.0537,,,,0.0651,
Q198H,0.063,,,0.0816,,,,
I36K,0.0391,,0.0421,0.0767,0.0435,,,
E224G,0.0923,,0.0531,,,,0.0637,
G213V,,,,0.0279,,,,
M125I,0.0941,,,,,,,
F65D,0.0611,0.0688,0.0588,0.0511,,,,
P228G,0.0817,,,0.0671,,,,
P228L,,,,0.0718,,,0.0747,
N116H,,0.0851,,,,0.0664,,
E231F,0.0824,,0.0566,,0.0763,0.067,,
P225Q,,,,0.0715,0.0676,,,
K98D,,0.0692,,0.059,0.0624,,0.0672,

Variant,area with substrate ENLYFQM,area with substrate ENLYFQQ,area with substrate ENLYFQV,area with substrate ENLYFQW,area with substrate ENLYFQH,area with substrate ENLYFQP,area with substrate ENLYFQY,area with substrate ENLYFQE
T174Q,0.102,,0.0421,,0.0752,,,
K185H,,,,,0.0879,,,
F101L,,,0.0472,0.0615,,0.0546,,
E107I,,,,,,,0.0604,0.0634
S123Y,,,,0.0607,,0.065,,
K68P,0.106,,,0.053,0.108,0.0505,,0.109
G202T,,0.0771,,,0.0687,,,
F117A,,0.0681,0.0891,,,,0.117,
L211A,,0.0732,,0.0146,,0.0524,,
D91R,,0.0879,,,,,0.109,
N172T,,0.0686,,0.0477,,,,
Q59D,0.0772,,,,,0.0501,,
Q59P,0.0259,,,,0.0263,,,
S26Y,0.0692,,0.0469,0.0717,0.0518,,,
D69Y,,,,0.056,0.0516,,,
S169E,0.0712,,,0.0624,,,,
W212P,,0.0492,,0.0747,0.0422,0.0731,0.052,
L205K,,,0.0518,,,,,
T114E,0.114,,,,0.0671,,,
N178D,0.0412,0.0707,,,0.0692,,0.0614,
N178G,,,0.064,,,0.0439,,
G8Y,,,,0.0587,,,0.0637,
